Laboratory results as given in PubChem BioAssay (NCI).
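Briefly, cells in 96-well plates were exposed to five compound concentrations for 48 h, and endpoints were estimated by linear interpolation. Here, GI50 denotes the concentration required for 50% inhibition of growth. TGI marks complete inhibition of growth.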

Test system: NCI-H322M lung
Experiment: NCI anticancer screen, dose series, 48 h

SMILES: O=C(N/N=C/c1ccsc1)c1[nH]c2ccc(Br)cc2c1-c1ccccc1
- GI50: 1.08 µM
- TGI: 56.8 µM
